Several values for one entry are separate records, joined by “and”; a condition that tells them apart may be missing. Equal entries are not always repeated. The shares of active, inactive and inconclusive entries below differ from those in the screen. Potencies beside an inconclusive call are fits to weak or partial responses and may not hold up. Activity calls are given as the source filed them. Unless noted, calls follow the shape of the dose curve; as a rule, active = well fitted cell-killing curve with a large enough effect in the repeat runs; inconclusive = weak or mixed curves, or effect the other way; inactive = flat fitted curve, though single readings scatter.
target: Estrogen receptor beta (Homo sapiens) (UniProt Q92731); test: qHTS assay to identify small molecule antagonists of the estrogen receptor beta (ER-beta) signaling pathway (AID 1259378; active = well fitted inhibition curve with a large enough effect in the signal ratio in the repeat runs, not every such curve was filed as active; inconclusive = weak or mixed curves, or effect the other way; inactive = no such curve, though single readings can be large or run the other way; the % refers to the signal ratio); settings: ER-beta-UAS-bla HEK293T, beta-lactamase FRET ratio, 16 h; activity, negative = inhibition: at 92.4 µM (top of the series) unless noted
UniProt Q92731, sequence (Q92731 whole entry, looked up): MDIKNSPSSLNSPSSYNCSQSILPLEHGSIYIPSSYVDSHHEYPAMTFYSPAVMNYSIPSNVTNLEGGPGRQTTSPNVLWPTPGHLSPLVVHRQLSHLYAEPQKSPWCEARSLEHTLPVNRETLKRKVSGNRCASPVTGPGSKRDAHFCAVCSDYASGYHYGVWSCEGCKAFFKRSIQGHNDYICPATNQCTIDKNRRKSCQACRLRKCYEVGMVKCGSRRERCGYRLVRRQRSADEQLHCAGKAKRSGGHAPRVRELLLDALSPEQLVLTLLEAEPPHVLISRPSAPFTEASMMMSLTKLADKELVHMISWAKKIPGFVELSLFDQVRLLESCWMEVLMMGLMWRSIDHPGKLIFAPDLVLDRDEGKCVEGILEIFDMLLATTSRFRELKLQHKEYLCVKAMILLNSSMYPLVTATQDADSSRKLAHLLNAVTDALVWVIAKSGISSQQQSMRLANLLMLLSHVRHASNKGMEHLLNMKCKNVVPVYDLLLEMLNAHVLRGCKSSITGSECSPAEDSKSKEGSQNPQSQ
Method in brief: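 Antagonist mode: compounds added to beta-lactamase reporter HEK293T ER-beta-UAS cells stimulated with E2 (1nM final), 16 hr at 37C. LiveBLAzer B/G FRET substrate, 2 hours room temperature, fluorescence read-out.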
% is scaled to controls: 0 for no effect and ±100 for the full control effect; potency is read from the fitted curve at half-maximal effect; tags tell the direction and shape of the fitted curve or compound fluorescence and quenching.

SMILES | activity, negative = inhibition | Potency
O=C(O)c1c(Cl)ccc2cc(Cl)cnc12 | inactive: 0.336% | 
CCCSP(=O)(OCC)Oc1ccc(Br)cc1Cl (configuration not stated) | inconclusive: -27.9% [at 42.5 µM] | 
COC(=O)NC(=S)Nc1ccccc1NC(=S)NC(=O)OC |  | inactive
CCCCC(CC)COC(=O)c1ccccc1C(=O)OCC(CC)CCCC (configuration not stated) |  | inconclusive: 27.3 µM [inhibitor, full curve]
C[C@]12CC[C@@H]3c4ccc(OC(=O)N(CCCl)CCCl)cc4CC[C@H]3[C@@H]1CC[C@@H]2O |  | inconclusive: 5.31 µM [activator, partial curve]
c1ccc2c(c1)-c1cccc3cccc-2c13 |  | inactive
Cc1cc(OC(=O)N(C)C)nn1C(=O)N(C)C | inactive: 3.86% | 
NCC(O)c1ccc(O)cc1 (configuration not stated) |  | inactive
COC(=O)c1sccc1S(=O)(=O)NC(=O)Nc1nc(C)nc(OC)n1 | inconclusive: 29.1% | 
CC(C)=CC1C(C(=O)OC(C#N)c2cccc(Oc3ccccc3)c2)C1(C)C (configuration not stated) | inactive: -0.727% | 
CCOP(=O)(OCC)Oc1ccc([N+](=O)[O-])cc1 | inconclusive: -45.6% | 
CCC(C)Br (configuration not stated) | inactive: 12.9% | 
O=C(O)c1cc(Oc2ccc(C(F)(F)F)cc2Cl)ccc1[N+](=O)[O-] | inconclusive: -43% | inconclusive: 61.4 µM [partial curve] and inconclusive: 54.4 µM [partial curve]
COCC(C)N(C(=O)CCl)c1c(C)csc1C (configuration not stated) |  | inconclusive: 54.5 µM [rising, partial curve]
CCCCCCC1CCOC1=O (configuration not stated) | inactive: -2.66% | 
CCCCC/C=C\C/C=C\C/C=C\C/C=C\CCCC(=O)NCC(=O)O |  | inconclusive: 23.7 µM [rising, partial curve]

test system: not listed separately; test: qHTS assay to identify small molecule agonists of the androgen receptor (AR) signaling pathway in the presence of an antagonist - cell viability counter screen (AID 1259379); settings: MDA-kb2 viability, CellTiter-Fluor, 16 h; series mostly up to 92.4 µM; activity change, negative = cytotoxicity: at the top concentration; also: nearly all actives have a fitted effect of over 25% in size;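 as to activity change, negative = cytotoxicity: MDA-kb2 human breast cancer cells carrying an MMTV luciferase reporter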
Method in brief: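 Cells: MDA-kb2 (MMTV-luc, AR and GR elements), 3,000/well, 5 hr settle. Added: nilutamide 3.0uM final, then compounds (15 conc.). Incubation: 16 hr, 37C, no CO2. Read-out: CellTiter-Fluor, 1 hr, fluorescence.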

SMILES | activity change, negative = cytotoxicity | Potency
NC(=O)O | inactive: 0.987% | 
Cn1c(CCCC(=O)O)nc2cc(N(CCCl)CCCl)ccc21 | inactive: 1.35% [at 42.5 µM] | 
CCc1cc(OC)c(C[C@H](C)N)cc1OC |  | inconclusive: 20.1 µM [cytotoxic, partial curve]
CCOP(=O)(OCC)Oc1ccc([N+](=O)[O-])cc1 |  | inactive and inconclusive: 30.6 µM [cytotoxic, partial curve]
COP(=S)(OC)Oc1ccc([N+](=O)[O-])cc1 |  | inconclusive: 19.4 µM [cytotoxic, full curve] and inconclusive: 68.6 µM [cytotoxic, single point]
